Laboratory results taken from article PMC6900781.
Residue numbers refer to the chain shown, from its start. Numbers in names are those of the source. These are yes or no findings as the source states them, for the method shown. Some results given as binding are weak or reduced against the parent protein; the word gives no strength. Tags and fused reporters may be left off the sequences shown.

T1: CAL1-GFP-LacI (Drosophila melanogaster), Q9VEN2
T1 chain: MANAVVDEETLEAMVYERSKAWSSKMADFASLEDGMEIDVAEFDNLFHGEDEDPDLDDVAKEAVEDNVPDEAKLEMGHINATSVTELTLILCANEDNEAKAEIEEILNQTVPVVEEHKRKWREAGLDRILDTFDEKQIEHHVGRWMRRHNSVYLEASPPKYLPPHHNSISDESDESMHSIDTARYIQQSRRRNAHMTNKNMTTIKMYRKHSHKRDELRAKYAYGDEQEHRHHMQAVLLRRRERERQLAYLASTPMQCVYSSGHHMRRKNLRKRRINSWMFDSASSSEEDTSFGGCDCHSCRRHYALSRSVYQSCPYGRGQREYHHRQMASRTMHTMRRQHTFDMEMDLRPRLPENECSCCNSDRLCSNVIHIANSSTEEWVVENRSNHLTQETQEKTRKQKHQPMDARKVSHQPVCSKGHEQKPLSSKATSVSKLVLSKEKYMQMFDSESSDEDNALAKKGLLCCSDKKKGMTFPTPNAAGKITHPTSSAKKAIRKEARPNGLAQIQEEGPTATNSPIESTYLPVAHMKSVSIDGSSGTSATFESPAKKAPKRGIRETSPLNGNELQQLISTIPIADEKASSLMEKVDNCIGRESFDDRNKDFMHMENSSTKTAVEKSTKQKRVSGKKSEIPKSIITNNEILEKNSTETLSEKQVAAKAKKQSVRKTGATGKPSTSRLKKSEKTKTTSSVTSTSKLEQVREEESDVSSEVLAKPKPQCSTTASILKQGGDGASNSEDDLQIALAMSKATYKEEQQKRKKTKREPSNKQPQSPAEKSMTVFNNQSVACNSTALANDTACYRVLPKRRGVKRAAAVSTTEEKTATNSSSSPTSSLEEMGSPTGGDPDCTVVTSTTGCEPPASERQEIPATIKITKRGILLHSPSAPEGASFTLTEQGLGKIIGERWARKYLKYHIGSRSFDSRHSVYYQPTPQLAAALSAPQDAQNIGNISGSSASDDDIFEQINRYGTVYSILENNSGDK

T2: GFP-LacI-dCENP-C (Drosophila melanogaster) (UniProt Q9VHP9)
T2 sequence: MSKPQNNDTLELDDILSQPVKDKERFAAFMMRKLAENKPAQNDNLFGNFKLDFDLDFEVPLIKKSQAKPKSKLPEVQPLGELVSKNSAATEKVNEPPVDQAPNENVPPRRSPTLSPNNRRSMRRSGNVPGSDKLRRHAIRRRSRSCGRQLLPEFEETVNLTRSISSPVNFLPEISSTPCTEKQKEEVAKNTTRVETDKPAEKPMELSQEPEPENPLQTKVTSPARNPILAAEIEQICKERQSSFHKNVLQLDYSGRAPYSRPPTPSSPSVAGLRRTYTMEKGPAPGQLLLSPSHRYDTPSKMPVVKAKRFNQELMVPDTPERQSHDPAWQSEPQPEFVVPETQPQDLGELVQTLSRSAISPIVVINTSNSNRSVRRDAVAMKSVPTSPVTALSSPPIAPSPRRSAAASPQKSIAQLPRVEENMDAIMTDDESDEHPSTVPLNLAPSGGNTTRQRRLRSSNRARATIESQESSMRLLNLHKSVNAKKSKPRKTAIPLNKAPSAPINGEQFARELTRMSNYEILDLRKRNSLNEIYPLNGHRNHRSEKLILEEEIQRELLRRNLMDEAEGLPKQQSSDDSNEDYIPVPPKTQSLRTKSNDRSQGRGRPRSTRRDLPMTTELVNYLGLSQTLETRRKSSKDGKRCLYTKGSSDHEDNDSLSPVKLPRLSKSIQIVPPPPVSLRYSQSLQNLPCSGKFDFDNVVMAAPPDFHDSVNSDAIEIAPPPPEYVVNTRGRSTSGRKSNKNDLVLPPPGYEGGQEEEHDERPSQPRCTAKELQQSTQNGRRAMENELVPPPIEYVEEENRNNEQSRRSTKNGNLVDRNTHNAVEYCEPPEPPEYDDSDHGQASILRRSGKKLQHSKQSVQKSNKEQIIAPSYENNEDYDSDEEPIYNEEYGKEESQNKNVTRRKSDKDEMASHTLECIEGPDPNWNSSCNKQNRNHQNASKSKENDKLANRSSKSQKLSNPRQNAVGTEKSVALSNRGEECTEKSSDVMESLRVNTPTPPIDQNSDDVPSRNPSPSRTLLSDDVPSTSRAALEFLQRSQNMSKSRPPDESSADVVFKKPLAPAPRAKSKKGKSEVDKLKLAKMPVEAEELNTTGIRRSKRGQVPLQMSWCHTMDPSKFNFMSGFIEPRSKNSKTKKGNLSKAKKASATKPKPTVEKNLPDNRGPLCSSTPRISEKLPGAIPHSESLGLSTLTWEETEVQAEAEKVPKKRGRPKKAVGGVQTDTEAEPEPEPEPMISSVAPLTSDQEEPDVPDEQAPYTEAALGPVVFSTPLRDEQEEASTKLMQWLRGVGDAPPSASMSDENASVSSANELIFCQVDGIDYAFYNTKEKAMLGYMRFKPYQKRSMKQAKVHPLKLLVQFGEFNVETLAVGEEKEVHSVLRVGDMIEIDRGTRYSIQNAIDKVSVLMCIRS

B1: CAL1-HA, Q9VEN2 1-979 (protein)
chain: T1 chain
B2: HA-dCENP-C(1009-1411) (domain or fragment, UniProt Q9VHP9 1009-1411)
chain: VPSRNPSPSRTLLSDDVPSTSRAALEFLQRSQNMSKSRPPDESSADVVFKKPLAPAPRAKSKKGKSEVDKLKLAKMPVEAEELNTTGIRRSKRGQVPLQMSWCHTMDPSKFNFMSGFIEPRSKNSKTKKGNLSKAKKASATKPKPTVEKNLPDNRGPLCSSTPRISEKLPGAIPHSESLGLSTLTWEETEVQAEAEKVPKKRGRPKKAVGGVQTDTEAEPEPEPEPMISSVAPLTSDQEEPDVPDEQAPYTEAALGPVVFSTPLRDEQEEASTKLMQWLRGVGDAPPSASMSDENASVSSANELIFCQVDGIDYAFYNTKEKAMLGYMRFKPYQKRSMKQAKVHPLKLLVQFGEFNVETLAVGEEKEVHSVLRVGDMIEIDRGTRYSIQNAIDKVSVLMCIRS
B3: HA-dCENP-C(1264-1411) (domain or fragment, UniProt Q9VHP9 1264-1411)
chain: GPVVFSTPLRDEQEEASTKLMQWLRGVGDAPPSASMSDENASVSSANELIFCQVDGIDYAFYNTKEKAMLGYMRFKPYQKRSMKQAKVHPLKLLVQFGEFNVETLAVGEEKEVHSVLRVGDMIEIDRGTRYSIQNAIDKVSVLMCIRS
B4: HA-dCENP-C(1264-1411) L1357E-L1406E (domain or fragment, UniProt Q9VHP9 1264-1411)
chain: B3 chain with L94E, L143E
B5: HA-dCENP-C L1357E-L1406E (protein, UniProt Q9VHP9 1-1411)
chain: T2 sequence with L1357E, L1406E

Tests used:
Experiment in all cases: LacI/LacO tethering and recruitment assay (immunofluorescence); bait fused to GFP-LacI tethered to chromosomal LacO arrays in human U2OS cells; HA- or V5-tagged prey transiently co-expressed; IF 48 h after transfection, prey intensity at the LacO spot or % of cells; no third Drosophila centromere protein co-expressed
[1] = biological target: T1, CAL1-GFP-LacI (Drosophila …); conditions: remark: other sources report otherwise
[2] = biological target: T2, GFP-LacI-dCENP-C (Drosophila melanogaster)
[3] = biological target: CAL1-GFP-LacI (Drosophila melanogaster) (UniProt Q9VEN2)

| binding [1] | binding [2] | binding [3] | Binder |
| --- | --- | --- | --- |
| binds |  |  | B1 |
|  | binds |  | B2 |
|  | binds | binds | B3 |
|  | no binding | no binding | B4 |
|  | no binding | no binding | B5 |
